This is an account of results in ChEMBL document CHEMBL4888484, “Replenishing the malaria drug discovery pipeline: Screening and hit evaluation of the MMV Hit Generation Library 1 (HGL1) against asexual blood stage Plasmodium falciparum ,using a nano luciferase reporter read-out” (2022).

Among all 150,000 compounds or so, about 540 (0.36%) showed an effect of 50% or more. The list shows a part of the results.

In the assay the test system is Plasmodium falciparum. In words: Primary screen in NF54 nanoGlo assay, in single point, at 2uM, 72h; a lower Z score goes with more inhibition. The class given is functional, Erythrocyte. The following applies: timepoint 72 hour.
Usually % Inhibition stands for the change of the read-out against control, counted positive when it falls. As to `COc1cc(NC(=O)CN(Cc2cnn(C)c2)C2CC2)ccc1Cl`, the “% Inhibition” value was -6% and the Z score is given as 1.03.
`O=C(NCc1ccccn1)c1nn(-c2ccccc2F)nc1CO`: the “% Inhibition” value was -7% and the Z score was 1.31.
Turning to `CC(C)c1csc(CN2CC[C@H](CNS(C)(=O)=O)C2)n1`, the “% Inhibition” value was -18% and the Z score amounted to 2.39.
For `O=C(N[C@@H](CCO)C1CCCC1)c1cncnc1-c1ccccc1`, the “% Inhibition” value was -1% and the Z score amounted to 0.13.
Take `CCn1nc(CC(C)C)cc1C(=O)Nc1ccccc1CN1CCCC1`: the “% Inhibition” value is recorded as -13% and the Z score is 1.32.
For the molecule `Cc1n[nH]c([C@@H]2CN(Cc3cn(C(C)(C)C)nn3)CCO2)n1`, the “% Inhibition” value was 4% and the Z score was -0.74.
As to `Cc1cc(CC(=O)Nc2nn(Cc3ccccc3)c3cc(OC(C)C)ccc23)on1`, the “% Inhibition” value was -3% and the Z score turned out to be 0.38.
Consider `CS(=O)(=O)N1CCC[C@H](Nc2ncccn2)C1`, for which the “% Inhibition” value is reported as 10% and the Z score is reported as -1.56.
`CCOCC(=O)Nc1cccc(-c2nncn2C)c1C`: the “% Inhibition” value was -10% and the Z score turned out to be 1.29.
In the case of `C[C@@H](c1nnnn1C1CC1)N1CCC(c2nccs2)CC1`, the “% Inhibition” value is -4% and the Z score is 0.65.
With `COc1cccc(CN2CC[C@@]23CCCN(C(=O)OC(C)(C)C)C3)c1OC`, the “% Inhibition” value is -3% and the Z score is listed as 0.57.
As for `CCNC(=O)[C@@H]1C[C@@H](NC(=O)c2cnc(C)s2)CN1C(=O)C1CCCC1`, the “% Inhibition” value is 10% and the Z score is listed as -1.78.
As to `O=C(NCc1nnc2ccccn12)N1CCN(c2ccncc2Cl)CC1`, the “% Inhibition” value is recorded as 2% and the Z score is -0.31.
Take `COc1ccc2c(c1)CCc1c(C(=O)NCC3CCN(Cc4ccccc4F)CC3)n[nH]c1-2`: the “% Inhibition” value is -19% and the Z score stood at 1.7.
As for `CN(Cc1ccco1)C(=O)c1c[nH]nn1`, the “% Inhibition” value was determined as 2% and the Z score is recorded as -0.3.
Regarding `CC(=O)N[C@@H]1c2ccccc2C2(CCN(C(=O)c3ccc4cc[nH]c4c3)CC2)[C@H]1OCc1ccccc1`, the “% Inhibition” value came out at 14% and the Z score is recorded as -1.78.
For `CCN(CC)CC1(NC(=O)c2cccc(C)c2F)CC1`, the “% Inhibition” value is listed as -7% and the Z score worked out at 1.37.
The corresponding values for `O=C(CN1CCN(Cc2ccccc2Cl)CC1)Nc1nccs1` are -1% and 0.19.
In the case of `N#Cc1ccnc(N2CC[C@@]3(CCCN(CC4CCCCC4)C3=O)C2)c1`, the “% Inhibition” value is recorded as -9% and the Z score is given as 1.85.
The like results for `OCCn1nc(-c2ccco2)nc1CN1CCOCC1` were, in that order, -10% and 1.83.
The corresponding values for `COC[C@H](C)n1cc(C(=O)NCc2cnc(C)o2)c(C)n1` are -3% and 0.27.
Take `CCc1ccc(CC(=O)N[C@H]2CCN(c3ncc[nH]c3=O)C2)nc1`: the “% Inhibition” value was -8% and the Z score is recorded as 1.06.
On to `Cc1ccc([C@H]2CN(Cc3cccc4nonc34)C[C@@H]2N(C)C)cc1`, for which the “% Inhibition” value is reported as -5% and the Z score is on record as 0.61.
Consider `CC(C)[C@@]1(O)CN(CC(=O)N2CCCCC2)C[C@@H]1C`, for which the “% Inhibition” value is given as -12% and the Z score is given as 2.44.
As for `CCCCS(=O)(=O)N1Cc2c(C(=O)NC3CC3)nn(C)c2C1`, the “% Inhibition” value was -11% and the Z score is reported as 1.35.
For `CC(C)CN1CC[C@H](c2nnc(Cc3ccccc3)o2)C1`, the “% Inhibition” value is listed as -7% and the Z score is recorded as 1.
`COCc1ccc(CNCc2cc3cc(Cl)c(Cl)cc3[nH]2)cc1`: the “% Inhibition” value is -13% and the Z score was 1.44.
On to `CCc1csc(CCNC(=O)[C@@H](C)Cn2cccn2)n1`, for which the “% Inhibition” value is recorded as -11% and the Z score was 1.12.
`CCN(Cc1nc(-c2ccc(C)c(OC)c2)no1)[C@H]1CCOC(C)(C)C1`: the “% Inhibition” value is on record as -16% and the Z score is listed as 2.04.
`Cc1ccc(C#N)c(N2CCC[C@H](c3cc(N4CCOCC4)nc(C)n3)C2)n1`: the “% Inhibition” value was found to be 1% and the Z score is recorded as -0.11.
In the case of `Cc1ccc2c(c1)cc(S(=O)(=O)c1ccccc1)c(=O)n2CC(=O)NCc1ccc2c(c1)OCO2`, the “% Inhibition” value was 2% and the Z score is recorded as -0.36.
As to `NC(=O)CCNS(=O)(=O)c1ccc(Cl)cc1`, the “% Inhibition” value is reported as -19% and the Z score is 1.74.
Turning to `CNC(=O)c1c(C)n(C)c2cc(C)cc[n+]12`, the “% Inhibition” value is recorded as -9% and the Z score is listed as 1.69.
Regarding `Cc1nc(N2CCOCC2)ncc1-c1cc(=O)[nH]c(N2CCC(Cc3ccccc3)CC2)n1`, the “% Inhibition” value was -19% and the Z score came out at 2.68.
The corresponding values for `Nc1c(-c2ccccn2)nsc1C(=O)NC1CCCC1` are -2% and 0.23.
Regarding `CC(Cc1ccsc1)NC(=O)N1CC(C)OC(C)C1` (configuration not stated), the “% Inhibition” value is -10% and the Z score is given as 2.2.
`CCOC(=O)c1nnn(Cc2cc(C)on2)c1C`: the “% Inhibition” value came out at 1% and the Z score is listed as -0.07.
Take `Cc1cc(C)nc(O[C@H]2CC[C@H](NC(=O)N3CCOCC3)CC2)n1`: the “% Inhibition” value is -1% and the Z score worked out at 0.14.
As for `CC(C)c1nncn1C1CCN(S(=O)(=O)c2cccc(Cl)c2)CC1`, the “% Inhibition” value is reported as 1% and the Z score was -0.12.
The like results for `CC(=O)N1CCN(c2nc(-c3ccccc3Cl)c3c(N)n(C)nc3n2)CC1` were, in that order, 0% and -0.05.
The like results for `COc1cccc(NC(=O)Nc2ccccc2NC(=O)c2ccccc2Cl)c1` were, in that order, -5% and 0.57.
`CCCOc1ccc(CNC(=O)c2cc(S(N)(=O)=O)oc2C)c(C)c1`: the “% Inhibition” value amounted to 0% and the Z score is 0.06.
As for `Cc1cccc2c(=O)n(CC[C@H]3CCNC3=O)ccc12`, the “% Inhibition” value is -15% and the Z score was 2.79.
For the molecule `O=C(NCc1nccs1)c1nn(Cc2ccccc2)c2c1CN(C(=O)c1ccccc1)CC2`, the “% Inhibition” value is 0% and the Z score came out at 0.01.
The corresponding values for `O=C(Nc1ccccc1)c1nnc(C(=O)N2CCC[C@H](C(=O)NCCCN3CCOCC3)C2)s1` are 2% and -0.33.
Turning to `O=C(CN(C(=O)c1ccc(F)cc1)C1CC1)Nc1nc(-c2ccccc2)cn1-c1ccc(F)c(Cl)c1`, the “% Inhibition” value is -16% and the Z score came out at 2.3.
For `CCC1(CC)Cc2ccccc2-c2[nH]c(=O)n(-c3ccccc3F)c(=O)c21`, the “% Inhibition” value is -6% and the Z score turned out to be 0.71.
`C#CCN(CC=C)C(=O)[C@H]1CCC(=O)N(Cc2ccccn2)C1`: the “% Inhibition” value is recorded as -5% and the Z score is listed as 0.91.
Turning to `C=CCCC(=O)NCC1CCN(C(=O)OC)CC1`, the “% Inhibition” value was -6% and the Z score was determined as 0.89.
For `CC(C(=O)NC1CCS(=O)(=O)C1)N1CC=CCC1` (configuration not stated), the “% Inhibition” value is recorded as -16% and the Z score was 1.64.
`CCc1ncc(CN2CCO[C@@H](CCOC)C2)cn1`: the “% Inhibition” value was 8% and the Z score is -1.19.
Turning to `C[C@@H](COc1ccccc1)N1CCC(CCC(=O)N2CCCC2)CC1`, the “% Inhibition” value came to 7% and the Z score was -0.82.
For `O=C(C1CCCN1C1CC1)N1CCCC2(CCCOC2)C1` (configuration not stated), the “% Inhibition” value turned out to be 0% and the Z score was 0.05.
Turning to `Cc1cc(-c2ccc(S(=O)(=O)Nc3ccc(F)cc3C)s2)[nH]n1`, the “% Inhibition” value is on record as 2% and the Z score is recorded as -0.47.
Consider `Cc1cccc2nc(CN3CCC[C@H](Cn4cncn4)C3)cn12`, for which the “% Inhibition” value worked out at 5% and the Z score is on record as -0.75.
For the molecule `CCn1cc(NS(=O)(=O)c2ccc3c(c2)CC(Cl)(Cl)C3=O)cn1`, the “% Inhibition” value was -6% and the Z score came out at 0.87.
For the molecule `COc1ccc(-c2ccc(CNC(=O)Cn3cnnn3)s2)cc1`, the “% Inhibition” value is on record as 14% and the Z score is on record as -1.67.
The like results for `CN(C)Cc1cc(NC(=O)NCc2noc3c2COCC3)ccn1` were, in that order, -2% and 0.35.
The like results for `Cc1cc(C)n(CC2(CNC(=O)c3cn4cc(Cl)ccc4n3)CC2)n1` were, in that order, -9% and 1.7.
Turning to `CC(Cc1cccs1)NC(=O)C1COCCN1CC(F)(F)F` (configuration not stated), the “% Inhibition” value is -6% and the Z score came to 1.15.
The like results for `NS(=O)(=O)CCCN1CCOc2ccc(Br)cc2C1` were, in that order, -3% and 0.43.
Turning to `CS(=O)(=O)c1cc(NC(=O)NC2(c3c(F)cccc3F)CCC2)ccc1F`, the “% Inhibition” value is reported as -4% and the Z score was 0.59.
The corresponding values for `C[C@H]1CN(CCCNC(=O)c2ccsn2)CCCO1` are -11% and 1.77.
The like results for `Cc1scc(C(=O)NCc2ncc(C(F)(F)F)cn2)c1C` were, in that order, -12% and 1.84.
Consider `COc1ccccc1NC(=O)Cn1c(-c2nc(-c3ccccc3F)no2)cccc1=O`, for which the “% Inhibition” value is reported as -13% and the Z score came to 1.25.
`Cc1nccc(C2CCN(C(=O)Nc3ccc4oc(C)cc4c3)CC2)n1`: the “% Inhibition” value is reported as -3% and the Z score came to 0.38.
Regarding `Cc1oc(-c2ccccc2)cc1C(=O)N1CCC(n2ccnn2)CC1`, the “% Inhibition” value is -15% and the Z score came to 2.46.
For `CN(CCN1CCN(c2ccccc2)CC1)CCN1CCCC1=O`, the “% Inhibition” value is 0% and the Z score is reported as 0.02.
As to `CNC(=O)C[C@H](C)N(C)Cc1cc(Cl)c(OC)cc1OC`, the “% Inhibition” value is listed as -3% and the Z score was determined as 0.48.
Take `CC(C)(C)OC(=O)N1CCC[C@@H]1CNC(=O)c1ccc2nncn2c1`: the “% Inhibition” value is -20% and the Z score was 1.88.
For `N#CCN(c1cccc(Cl)c1)S(=O)(=O)c1cccn2cnnc12`, the “% Inhibition” value was -14% and the Z score amounted to 1.73.
Take `CC(C)(CO)Nc1ccc(Br)cn1`: the “% Inhibition” value was -1% and the Z score is 0.07.
The like results for `COc1ccccc1[C@@H]1CC(c2cccn2C)=NN1C(=O)CN(CCN1CCOCC1)C(C)=O` were, in that order, 37% and -4.99.
On to `CC1=CCC(NC2CCCn3ncnc32)CC1` (configuration not stated), for which the “% Inhibition” value turned out to be 1% and the Z score is -0.23.
Consider `CC(NC(=O)c1cncc(Br)c1)C1CC2CCC1C2` (configuration not stated), for which the “% Inhibition” value is reported as -6% and the Z score is recorded as 0.91.
With `Cc1cccc(-c2noc(CN3CCC(n4cncn4)CC3)n2)c1`, the “% Inhibition” value amounted to 0% and the Z score is -0.08.
In the case of `Cc1ccc([C@H]2N(c3cccc(Cl)c3)C(=O)[C@@H]3CCCN32)o1`, the “% Inhibition” value came to 6% and the Z score is given as -0.83.
The corresponding values for `CCN(CC(=O)Nc1ccn(C)n1)C[C@H](O)c1cccc(O)c1` are -9% and 1.38.
`CCn1nc(C(=O)N2CCCCC[C@H]2C(F)(F)F)ccc1=O`: the “% Inhibition” value is on record as 2% and the Z score was -0.27.
Turning to `CN(CCC(=O)c1ccc(F)cc1)CC(F)F`, the “% Inhibition” value is given as 5% and the Z score is on record as -0.65.
Take `CCO[C@@H](C)C(=O)NCc1cccs1`: the “% Inhibition” value was -15% and the Z score came to 1.58.
Consider `Cc1cnc(CNC(=O)[C@@H](C)C2CCOCC2)s1`, for which the “% Inhibition” value came out at 0% and the Z score was -0.03.
On to `CC1CCCCC1N(C)C(=O)c1ccoc1` (configuration not stated), for which the “% Inhibition” value amounted to 4% and the Z score is given as -0.57.
The corresponding values for `O=C(CCC1CCCC1)N1CCCCC[C@H]1c1nc(C2CC2)no1` are -11% and 2.1.
As for `CNC(=O)[C@@H]1C[C@@H](NCc2c(F)cccc2F)CN1Cc1cccc(Cl)c1`, the “% Inhibition” value was -1% and the Z score amounted to 0.15.
For `COc1ccc(CCn2ccn3c(=O)cc(C)nc23)cc1`, the “% Inhibition” value is given as -12% and the Z score worked out at 1.53.
